This test concerns Plasmodium falciparum. Nature of the test: Primary screen in NF54 nanoGlo assay, in single point, at 2uM, 72h; a lower Z score goes with more inhibition. Conditions: timepoint 72 hour. Format: functional, Erythrocyte.

Out of some 150,000 compounds screened, about 540 (0.36%) showed an effect of 50% or more. The list shows a part of the results.

Data on 41 molecules can be found in ChEMBL document CHEMBL4888484, “Replenishing the malaria drug discovery pipeline: Screening and hit evaluation of the MMV Hit Generation Library 1 (HGL1) against asexual blood stage Plasmodium falciparum ,using a nano luciferase reporter read-out” (2022).

For orientation: % Inhibition means the drop in the measured response relative to a control, in per cent.

With `Nc1ccc(C(=O)N2CCN(CC3CC3)[C@@H]3CS(=O)(=O)C[C@@H]32)cn1`, the “% Inhibition” value was 3% and the Z score is recorded as -0.48.

For `COc1cc(OC)cc(C(C(=O)O)N2C3CCC2CC2(C3)CC2(F)F)c1` (configuration not stated), the “% Inhibition” value was -18% and the Z score was 1.93.

Turning to `CC(C)c1nnc2ccc(NC(=O)c3cn(CC4(C)COC4)nn3)cn12`, the “% Inhibition” value is listed as -1% and the Z score was 0.2.

Turning to `COc1ccc(CN2C[C@H]2C(N)=O)cc1` (some centres not stated), the “% Inhibition” value was 8% and the Z score is given as -1.02.

Consider `O=C(c1nc(Cn2nc(-c3ccccc3)ccc2=O)no1)N1CCC2(CC1)OCCO2`, for which the “% Inhibition” value is -12% and the Z score came out at 1.47.

For the molecule `CCOC(=O)[C@]1(F)CN(CCc2ccncc2)CC12COC2`, the “% Inhibition” value is on record as 7% and the Z score was -1.2.

Take `Cc1nc(NC(=O)N2CC3CCC2CN3)ccc1-c1ccccc1` (configuration not stated): the “% Inhibition” value is given as -2% and the Z score is on record as 0.33.

`O=C(c1cc[nH]n1)N1C[C@H](c2cc(F)cc(F)c2)[C@@H]2[C@H]1C1CCN2CC1`: the “% Inhibition” value is -7% and the Z score worked out at 1.17.

Take `CCN1C[C@]2(COC)CCC(OC)[C@@]34C5C[C@]6(O)C(OC)C[C@@](OC(C)=O)(C5[C@H]6OC(=O)c5ccc(OC)cc5)C(C(OC)C23)[C@@H]14` (some centres not stated): the “% Inhibition” value is -5% and the Z score turned out to be 0.46.

For the molecule `CC1OCCC1(O)Cn1cnc2c(N3C4CCC3C(CO)C4)ncnc21` (configuration not stated), the “% Inhibition” value is given as -9% and the Z score is 1.18.

`O=c1[nH]c2ccc(S(=O)(=O)Oc3cccc4ccccc34)cc2o1`: the “% Inhibition” value was 5% and the Z score is reported as -0.69.

As for `O=C1N=C(O)NC(=O)C12Cc1ccccc1OC2c1ccccc1` (configuration not stated), the “% Inhibition” value is -6% and the Z score came out at 0.92.

For `CC(C)(C)n1nnc(CNC2(c3ccc(F)cc3F)CCCCC2)n1`, the “% Inhibition” value is reported as 35% and the Z score is listed as -3.91.

As for `CN1CCN(C(=O)Cc2ccc(Cl)c(Cl)c2)[C@H]2CS(=O)(=O)C[C@H]21`, the “% Inhibition” value is 9% and the Z score was -1.34.

For the molecule `Cc1ccc([C@H]2N[C@](CO)(Cc3c[nH]c4ccccc34)[C@H]3CN(C)C[C@@H]23)o1`, the “% Inhibition” value is -18% and the Z score is listed as 2.69.

As for `Cc1oncc1C(=O)N1C[C@H](c2ccc3c(c2)OCO3)[C@@H]2[C@H]1C1CCN2CC1`, the “% Inhibition” value is -3% and the Z score is 0.46.

In the case of `CN(C)c1ccc([C@@H]2c3cccn3-c3ccccc3CN2C(=O)NCc2ccc(F)cc2)cc1`, the “% Inhibition” value is -9% and the Z score was 1.12.

As for `Cc1ccc(C)c(NC(=O)[C@H](C)N2CC=C(c3ccnc4[nH]ccc34)CC2)c1`, the “% Inhibition” value is -19% and the Z score is on record as 1.95.

Regarding `CCOc1ccc(NC(=O)N2CC[C@@]3(C2)C(=O)Nc2ccc(OC)cc23)cc1`, the “% Inhibition” value is listed as -3% and the Z score turned out to be 0.4.

For `O=C(O)[C@@]12COc3ccccc3[C@@H]1CN(C1CCCC1)C2`, the “% Inhibition” value is -4% and the Z score is 0.82.

`O=c1[nH]c2ccc(S(=O)(=O)N3C[C@H]4CC[C@@H](C3)N(CC3CC3)C4)cc2o1`: the “% Inhibition” value is listed as -15% and the Z score was determined as 1.93.

For the molecule `CC1(O)CNC2CC1(O)Oc1ccccc12` (configuration not stated), the “% Inhibition” value was determined as 0% and the Z score was -0.06.

For `CCn1nc(C(=O)N2CCC3(CC2)OCCO3)cc1-c1ccc(OC)cc1`, the “% Inhibition” value is given as -15% and the Z score turned out to be 1.48.

Consider `c1ccc2c(c1)CC1CCCC2C1NCCn1ccnc1` (configuration not stated), for which the “% Inhibition” value is reported as -1% and the Z score was 0.1.

On to `CN(C)C(=O)CN1C(=O)[C@@H]2CC[C@H]1CN(Cc1cccnc1N)C2`, for which the “% Inhibition” value was -9% and the Z score is recorded as 1.36.

Turning to `CCOC1CC(NC2CN(C)CC2C)C12CCCC2` (configuration not stated), the “% Inhibition” value turned out to be 2% and the Z score is recorded as -0.25.

Take `CC(C)C(NC(=O)c1nn(Cc2ccccc2)c2nccc(-c3cccs3)c12)C(C)C`: the “% Inhibition” value is on record as -4% and the Z score is given as 0.45.

For the molecule `CN1C(=O)c2cccnc2O[C@H]2CN(Cc3cccc(F)c3)C[C@H]21`, the “% Inhibition” value is given as -11% and the Z score is 1.6.

`COc1snc(C(Cl)(Cl)Cl)c1Cl`: the “% Inhibition” value is reported as 41% and the Z score is -5.24.

With `Cc1cccc(N2CCN(C(=O)CCc3nc(C4=CCN(C)CC4)no3)C[C@@H]2C)c1`, the “% Inhibition” value stood at 16% and the Z score is -2.08.

With `CCn1ccc2cc(CN(C)[C@@H](C)Cc3cnccn3)ccc21`, the “% Inhibition” value turned out to be 6% and the Z score was -1.08.

With `CCn1c(C)cc2[nH]nc(NC(=O)c3cnn(C4CCC4)c3)c2c1=O`, the “% Inhibition” value is recorded as -2% and the Z score is 0.27.

`COc1cc(C[C@H](C)NCc2scnc2C)ccn1`: the “% Inhibition” value is recorded as -1% and the Z score is recorded as 0.21.

Turning to `O=C([C@H]1CN2CCC1C[C@@H]2Cn1cc(C2(O)CCCC2)nn1)N1CCOCC1` (some centres not stated), the “% Inhibition” value worked out at 9% and the Z score is listed as -1.08.

`O=C(NCCS(=O)(=O)F)c1ccccc1`: the “% Inhibition” value is -15% and the Z score was 1.6.

`CCN1CCN(C(=O)Cc2c(C)nc3nc(-c4cccs4)nn3c2C)CC1`: the “% Inhibition” value is reported as -5% and the Z score turned out to be 0.51.

Regarding `CN(CCN1C[C@@H]2CC[C@H]1C2)Cc1nccs1`, the “% Inhibition” value is 0% and the Z score is reported as -0.06.

As to `O=c1ccc(-c2cccnc2)c2n1C[C@H]1C[C@@H]2CN(S(=O)(=O)c2ccccc2)C1`, the “% Inhibition” value was 31% and the Z score is listed as -3.46.

`Cc1cc(CC(=O)N2C(C)CN(C)CC2C)n[nH]1` (configuration not stated): the “% Inhibition” value is listed as -9% and the Z score was 0.84.

Turning to `Fc1ccc2c(N3CC[C@@]4(CCCCN4)C3)nccc2c1`, the “% Inhibition” value was -1% and the Z score was 0.12.

Consider `CCN(CC)CCC1C(=O)N(c2ccccc2)C(=O)N(c2ccccc2)C1=O`, for which the “% Inhibition” value worked out at 36% and the Z score is listed as -0.89.
